# In FireProtDB (doi:10.1021/bi00007a007):
# Details: Escherichia coli (strain K12); pH 7; Thermal; DSC; Sodium phosphate 50 mM; reversible: yes
substance,measurement,value
Thioredoxin 1 wild type (sequence not shown),Tm,85.3 °C
same,heat capacity change of unfolding,1.9 kcal/mol/K
